In article PMC4336329 (PLoS ONE, 2015):
About 14,000 (4.5%) of roughly 310,000 compounds showed an effect of 50% or more. Effects have a minus sign here. This is one part of the list.

Each compound was assayed against human ether-à-go-go-related gene (hERG) potassium channel (human, UniProt Q12809) (assay: primary screen, population patch clamp on CHO cells stably expressing hERG).
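Further: peak tail current of the secondary pulse compared with the same well before compound.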

human ether-à-go-go-related gene (hERG) potassium channel, sequence (Q12809 whole entry, looked up): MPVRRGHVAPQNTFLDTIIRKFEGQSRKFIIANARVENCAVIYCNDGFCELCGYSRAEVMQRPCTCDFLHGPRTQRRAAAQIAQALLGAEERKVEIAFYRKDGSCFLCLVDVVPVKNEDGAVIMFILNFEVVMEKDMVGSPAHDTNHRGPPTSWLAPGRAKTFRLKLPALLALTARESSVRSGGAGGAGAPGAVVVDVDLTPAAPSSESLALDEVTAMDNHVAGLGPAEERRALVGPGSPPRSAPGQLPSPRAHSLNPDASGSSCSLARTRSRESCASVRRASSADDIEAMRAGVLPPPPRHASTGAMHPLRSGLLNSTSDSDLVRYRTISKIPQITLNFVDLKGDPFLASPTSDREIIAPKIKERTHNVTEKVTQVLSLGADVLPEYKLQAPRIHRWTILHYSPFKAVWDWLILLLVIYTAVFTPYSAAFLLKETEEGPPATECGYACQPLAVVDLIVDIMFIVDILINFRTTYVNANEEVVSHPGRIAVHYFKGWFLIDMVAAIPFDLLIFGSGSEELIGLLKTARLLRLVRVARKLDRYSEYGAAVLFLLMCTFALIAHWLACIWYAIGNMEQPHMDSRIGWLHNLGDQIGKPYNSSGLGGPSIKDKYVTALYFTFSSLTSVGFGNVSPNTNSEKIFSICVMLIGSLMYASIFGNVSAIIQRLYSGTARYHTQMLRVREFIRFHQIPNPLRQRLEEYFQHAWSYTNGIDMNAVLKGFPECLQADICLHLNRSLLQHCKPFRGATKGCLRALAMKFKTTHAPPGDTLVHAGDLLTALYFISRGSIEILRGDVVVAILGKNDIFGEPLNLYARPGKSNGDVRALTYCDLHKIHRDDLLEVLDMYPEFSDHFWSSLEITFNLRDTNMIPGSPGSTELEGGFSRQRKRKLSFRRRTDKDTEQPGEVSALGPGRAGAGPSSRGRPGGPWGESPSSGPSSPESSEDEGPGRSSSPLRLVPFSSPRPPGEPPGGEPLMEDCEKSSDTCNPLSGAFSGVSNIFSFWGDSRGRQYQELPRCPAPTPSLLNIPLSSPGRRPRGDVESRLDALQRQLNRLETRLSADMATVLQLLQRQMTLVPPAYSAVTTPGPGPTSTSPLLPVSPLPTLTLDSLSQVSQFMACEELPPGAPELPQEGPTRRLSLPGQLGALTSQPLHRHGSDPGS

In order of falling “hERG current change (%, negative = inhibition) at 10uM” value:
1. CCc1sc(N(C(=O)Cc2ccccc2)c2ccccc2F)nc1-c1ccc(C)cc1  30.7%
2. O=C(O)[C@H]1C[C@@H]1[C@H](NP(=O)(c1ccccc1)c1ccccc1)c1ccccc1  29%
3. COc1ccccc1NC(=O)c1ccc(C(=O)Nc2ccccc2OC)nc1  24.8%
4. CN1C(=O)/C(=C/c2ccc3c(c2)OCO3)N=C1c1ccccc1  22.9%
5. CCS(=O)(=O)c1ccc2c(c1)N(S(C)(=O)=O)CC(C(=O)NC1CC1)O2 (centres unmarked)  21.3%
6. CCOC(=O)/C=C/C(=O)Nc1ccc(S(=O)(=O)N2CCCCCC2)cc1  20.7%
7. COc1ccccc1NC(=O)Nc1cccc(C(=O)O)c1  17.5%
8. CN1CCN(c2ccc(NC(=O)Oc3ccccc3)cc2)CC1  17.4%
9. O=C(N/N=C/c1ccc(OC(=O)c2ccco2)cc1)c1ccc[n+]([O-])c1  17.2%
10. COC(=O)c1cc(S(=O)(=O)NCc2ccccc2Cl)c[nH]1  17.1%
11. CCN(CC)CCNCC(=O)N1c2ccccc2CCc2ccc(NC(=O)OC)cc21.Cl  17%
12. COc1ccc2oc(C(=O)OCC(=O)N(C)c3ccccc3)c(C)c2c1  16.9%
13. CCCN(C(=O)Cn1nc(C)c([N+](=O)[O-])c1C)c1c(N)n(Cc2ccccc2)c(=O)[nH]c1=O  16.5%
14. COc1ccc(CNC(=O)C(c2ccc(C)cc2)N(Cc2cccs2)C(=O)c2ccc3c(c2)OCCO3)cc1 (centres unmarked)  15.6%
15. COCCNC(=O)CSc1nc2sccc2c(=O)n1-c1ccccc1  15.3%
16. CCOc1ccc(-c2csc(NC(=O)c3ccc(S(=O)(=O)N4CCc5ccccc5C4)cc3)n2)cc1  14%
17. Cc1[nH]c2ccccc2c1N=Nc1ccccc1C(=O)O  13.8%
18. CCc1ccccc1NC(=S)Nn1cnnc1  13.6%
19. CCCOc1ccc(/C(O)=C2/C(=O)C(=O)N(CCN(C)C)C2c2ccncc2)cc1 (centres unmarked)  12.8%
20. Cc1cccc(Sc2nc(-c3ccccc3)ncc2C(=O)O)c1  11.7%
21. Cc1ccc(C2(C)NC(=O)N(CC(=O)NC(C)c3ccccc3)C2=O)cc1 (centres unmarked)  11.7%
22. COc1cc(OC)c(C(=O)OCC(=O)Nc2c(C)n(C)n(-c3ccccc3)c2=O)cc1OC  11.6%
23. S=C(NC1CCCCC1)N1CCN(c2ncccn2)CC1  9.57%
24. O=C(COC(=O)COc1ccc(Cl)cc1)NCCNC(=O)COC(=O)COc1ccc(Cl)cc1  9.54%
25. CN(C)CCCNC(=O)C(=O)NCC(c1cccs1)S(=O)(=O)c1ccc(F)cc1 (centres unmarked)  9.5%
26. CCCCn1c(N)c(N(CCOC)C(=O)c2ccc(-c3ccc(Cl)cc3)o2)c(=O)[nH]c1=O  9.18%
27. Cc1coc2c(C)c3oc(=O)c(CCC(=O)N4CCC(C(=O)NCCCC(=O)O)(c5ccccc5)CC4)c(C)c3cc12  8.75%
28. COc1ccc(C2=NS(=O)(=O)N(C)C(C(=O)NC3CCCCC3)=C2)cc1  8.66%
29. CCCCOc1cccc(C2/C(=C(/O)c3ccc4c(c3)CC(C)O4)C(=O)C(=O)N2CCN2CCOCC2)c1 (centres unmarked)  8.57%
30. CC1CCCCN1C(=O)Cn1c(=O)oc2cc(S(=O)(=O)N3CCCCC3)ccc21 (centres unmarked)  8.43%
31. O=C(Nc1ccc2c(c1)OCCO2)c1ccncc1  7.56%
32. CCOC(=O)Nc1ccc2nc3n(c(=O)c2c1)CCCCC3  7.45%
33. Cc1ccccc1NC(=O)c1ccc(C)c(S(=O)(=O)NCc2cccnc2)c1  7.35%
34. CC(C)C(NS(=O)(=O)c1ccccc1)C(=O)N1CCN(C(=O)c2ccco2)CC1 (centres unmarked)  7.3%
35. Cc1cc(=O)[nH]c(N/N=C/c2ccc3c(c2)OCCO3)n1  6.88%
36. O=C(COC(=O)CCCSc1nc2ccccc2[nH]1)Nc1ccc(Oc2ccccc2)cc1  6.08%
37. O=C1NC(=O)C(CCc2ccncc2)(C2CCCCC2)C(=O)N1  5.77%
38. Cc1cc(C)cc(OCC(=O)N2CCc3ccccc3C2)c1  4.55%
39. Cn1nnnc1NCc1ccccc1F  4.52%
40. COC(=O)Nc1c(-c2ccccc2)nc2ccc(C)cn12  4.52%
41. O=C(CN1C(=O)CSc2ccccc21)N/N=C/c1ccco1  4.07%
42. COc1cc2c(cc1OC)CN(C(=O)c1cccc([N+](=O)[O-])c1)CC2  4.01%
43. C=CCn1c(O)c(C(CC)=NCc2ccc3c(c2)OCO3)c(=O)[nH]c1=O  3.09%
44. Cc1ccccc1CSc1nc2c(c(=O)[nH]1)CCCC2  2.17%
45. COc1ccc(S(=O)(=O)NNC(=O)c2sccc2-n2cccc2)cc1  2%
46. O=C(Cc1cccs1)NCc1ccccc1  1.94%
47. O=C1CN(C(=O)CCCc2c[nH]c3ccccc23)c2ccccc2N1  1.84%
48. CCn1cc(C(=O)NC(C)C2CC3CCC2C3)cn1 (centres unmarked)  1.48%
49. Cc1cc(OCC(=O)NCC2CCC(C(=O)O)CC2)c2c(C)c(Cc3ccccc3)c(=O)oc2c1 (centres unmarked)  1.25%
50. NC(=O)[C@@H]1CC2(CC(c3cccc(NC(=O)[C@H]4CCC(=O)N4)c3)=NO2)CN1C(=O)c1ccc(Cl)cc1 (some centres unmarked)  1.1%
51. Cn1c(SCc2cccnc2)nc2cccnc21  -0.229%
52. C/C(=N\N=C(/N)SC1CC(=O)N(c2ccccc2)C1=O)c1cccs1 (centres unmarked)  -0.317%
53. O=C(NC(=S)N1C[C@H]2C[C@H](C1)c1cccc(=O)n1C2)c1ccc(Cl)cc1Cl  -1.16%
54. O=C(NNC(=O)C(c1ccccc1)c1ccccc1)c1ccccn1  -1.81%
55. Cc1ccc(NC(=O)C(C)Sc2nnc(C)n2C)cc1 (centres unmarked)  -2.87%
56. Cc1ccc(S(=O)(=O)NC(=O)Nc2ccc(OC(F)F)cc2)cc1  -3.1%
57. COc1ccc(C(C)=O)cc1COC(=O)c1cc(=O)c2ccccc2o1  -3.98%
58. CCCN(CCC)CCNC(=O)C(NS(=O)(=O)c1ccc2c(c1)CCC(=O)N2)c1ccccc1 (centres unmarked)  -4.89%
59. Cc1cccc(OCc2nnc(SCC(=O)N3CCCC3)n2C)c1  -5.79%
60. CCC(C)(C)n1nnnc1CN1CCN(c2nc3cc(OC)ccc3cc2C#N)CC1  -5.99%
61. CS(=O)(=O)c1ccc(-c2nnc(NC(=O)C3=COCCO3)o2)cc1  -6.41%
62. COc1ccc(NC(=O)c2c(N)no[n+]2[O-])cc1  -6.52%
63. O=S(=O)(c1ccc2c(c1)CCCN2)N1CCCC1  -7.95%
64. C=C(C)C1CCC2(C(=O)O)CCC3(C)C(CCC4C5(C)C(C=O)C(O)C(C)(C)C5CCC43C)C12 (centres unmarked)  -8.26%
65. Cc1cc(NC(=O)CSc2nnc(C3CC3)n2Cc2ccccc2)no1  -8.63%
66. CCOc1cc(NS(=O)(=O)c2ccc(OC)cc2)c(OCC)cc1NC(C)=O  -9.78%
67. CN(CC(=O)Nc1cccc2ccccc12)C(=O)/C=C/c1cccs1  -10.7%
68. CCN1CCCC1CNC(=O)c1cc2ccc(OC)cc2[nH]1 (centres unmarked)  -12.4%
69. CCN(Cc1ccccc1)C(=O)CCS(=O)(=O)c1ccc2c(c1)n(C)c(=O)c(=O)n2C  -15%
70. O=C(CCl)Nc1c2c(nn1-c1ccccc1)CSC2  -15.8%
71. Cc1ccc2c(c1)C(c1ccc(F)cc1)N(C(=O)c1ccccc1Br)CC(=O)N2 (centres unmarked)  -16.1%
72. CC(=O)N1CCN(S(=O)(=O)c2cccc(C(=O)OCc3cccc(F)c3)c2)CC1  -17.2%
73. O=C(c1ccc(Cl)nc1)N1CCC(Cc2ccccc2)CC1  -19.8%
74. COc1ccc(N=Cc2c(O)[nH]c3ccccc23)cc1OC  -22.4%
75. C=CCn1c(SCC(=O)Nc2cc(C)cc(C)c2)nnc1-c1cnccn1  -29.6%
76. COc1ccc(NC(=S)N(CCN(C)C)Cc2cccs2)cc1  -33.9%
77. Cc1cc(N2CCCCC2C)nc(-c2ccccc2O)n1 (centres unmarked)  -38.3%
78. OC(COc1ccc(OCc2ccccc2)cc1)CN1CCCCC1 (centres unmarked)  -39.6%
79. CCCCCn1c(SCCOCC)nc2c1c(=O)[nH]c(=O)n2C  -46.8%
80. CCn1c(=O)cc(SCC(=O)N2CCN(c3ccccc3OC)CC2)c2ccccc21  -52%
81. COC(=O)C1=C(C(=O)OC)[C@@H]2N(C)c3ccc(OC)cc3[C@@]23C[C@@H](C(=O)OC)N(C(=O)COCc2ccccc2)C3=N1  -55%
82. O=C(c1ccccc1S(=O)(=O)NCC(O)COc1ccc([N+](=O)[O-])cc1)N1CCCCC1 (centres unmarked)  -56.8%
83. CSc1ccc(S(=O)(=O)N(CC(=O)NCc2ccccn2)c2ccc(C)cc2)cc1  -59.3%
84. COc1ccccc1CNC(=O)C/C(C)=N/NC(=O)COc1ccc(C)cc1Br  -63.9%
85. CCN(CC)CCNC(=O)C(Oc1ccccc1)Oc1ccccc1  -65.4%
86. Cl.Clc1ccc(CN2C3=NCCCN3c3ccccc32)cc1Cl  -76.3%
